{
  "source": "PubChem BioAssay (Tox21)",
  "note": "Inconclusive means that the source gave no clear call. Such entries were picked first, then a sample of the others. Potencies of inconclusive entries are doubtful fits and often do not repeat. Calls of active or inactive are those of the source. The call rests on the fitted dose curve; in most records, active means well fitted activation curve with a large enough effect in the signal ratio in the repeat runs (not every such curve was filed as active); inconclusive means weak or mixed curves, or effect the other way; inactive means no such curve, though single readings can be large or run the other way; the % refers to the signal ratio. Bridge positions count the residues as written; N and C are the ends. Square brackets hold non-standard residues; d marks the D form. Peptide text beside a SMILES is read from it. hArg = N=C(N)NCCCC[C@H](N)C(=O)O; Mpa = O=C(O)CCS",
  "data": [
    {"assay": "qHTS assay for small molecule agonists of the antioxidant response element (ARE) signaling pathway (AID 743202); further: potency means the concentration at half of the fitted maximal effect; tags describe the fitted curve by direction and shape; on activation: on the % scale 0 is the no-effect control and ±100 the full control effect", "conditions": "HepG2 ARE-bla reporter, beta-lactamase FRET, 16 h; activation: at 73.3 µM (top of the series) unless noted", "method_in_brief": "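Quantitative high-throughput format in HepG2 cells bearing an integrated ARE-beta-lactamase reporter. Compound exposure lasted 16 h at 37 C, and fluorescence was read 2 h after adding LiveBLAzer B/G substrate at room temperature.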", "values": [
      {"smiles": "CC(C)(C)C(=O)O", "activation": "inconclusive: -15.5% [at 94.8 µM]"},
      {"smiles": "OC(Cn1cncn1)(Cn1cncn1)c1ccc(F)cc1F", "activation": "inconclusive: 37.4% [at 94.8 µM]"},
      {"smiles": "Cc1cccc(C(=O)O)c1[N+](=O)[O-]", "activation": "inconclusive: 17.3%"},
      {"smiles": "NC(=O)NC(N)=O", "Potency": "inactive"},
      {"smiles": "CCOC(=O)CC(O)(CC(=O)OCC)C(=O)OCC", "Potency": "inconclusive: 43.3 µM [rising, partial curve]"},
      {"smiles": "O=C(/C=C/c1ccc(O)c(O)c1)O[C@@H](C(=O)O)[C@@H](OC(=O)/C=C/c1ccc(O)c(O)c1)C(=O)O", "Potency": "inconclusive: 0.0273 µM [rising, full curve, poor fit]"},
      {"smiles": "C/C=C/C(=O)N(CC)c1ccccc1C", "Potency": "inactive"},
      {"smiles": "CC(N=C(NC#N)Nc1ccncc1)C(C)(C)C", "note": "(stereo not given)", "activation": "inconclusive: -17.1%"},
      {"smiles": "Cc1cc2c(cc1CC(=O)c1sccc1S(=O)(=O)Nc1onc(C)c1Cl)OCO2", "Potency": "inconclusive: 21.1 µM [rising, partial curve, poor fit]"},
      {"smiles": "CCCCC(CC)CNCC(CC)CCCC", "note": "(stereo not given)", "activation": "inactive: -5.96%"},
      {"smiles": "CC(C)CCCC(=O)O", "activation": "inconclusive: 4.07%"},
      {"smiles": "CC1=CC(=O)CCC1", "activation": "inactive: -0.705%"},
      {"smiles": "CNS(=O)(=O)Cc1ccc2[nH]cc(CCN(C)C)c2c1", "activation": "inactive: -5.13%"},
      {"smiles": "Cc1cccc(C)c1", "Potency": "inactive"},
      {"smiles": "CCCCCCCCCCCCCCCCCl", "activation": "inactive: -6.66% [at 34.3 µM]"},
      {"smiles": "CN1Cc2cc(C(=O)N3CCC(C4CCNCC4)CC3)ccc2N[C@@H](CC(=O)O)C1=O", "activation": "inconclusive: 29.6%"},
      {"smiles": "C#CC(C)(O)CC(C)C", "note": "(stereo not given)", "activation": "inactive: -18.4%"},
      {"smiles": "CCCCCCCCC", "Potency": "inactive"},
      {"smiles": "CN(C)C(=O)COC(=O)Cc1ccc(OC(=O)c2ccc(N=C(N)N)cc2)cc1", "activation": "inactive: 1.89%"},
      {"smiles": "NC(=O)[C@@H]1CSSCCC(=O)N[C@@H](CCCCN=C(N)N)C(=O)NCC(=O)N[C@@H](CC(=O)O)C(=O)N[C@@H](Cc2c[nH]c3ccccc23)C(=O)N2CCC[C@H]2C(=O)N1", "note": "([Mpa][hArg]GDWPC-NH2; disulfide 1-7)", "activation": "inactive: -7.43%"},
      {"smiles": "COc1ccc2nc(N)sc2c1", "activation": "inconclusive: 35.6%"},
      {"smiles": "Cc1ccc(O)cc1", "activation": "inconclusive: 27.2%"},
      {"smiles": "Nc1nc(Cl)nc2c1ncn2[C@H]1C[C@H](O)[C@@H](CO)O1", "activation": "inactive: 6.83%"},
      {"smiles": "Cc1cccc(C)c1NC(=O)c1ccc(N)cc1", "activation": "inactive: 2.14%"},
      {"smiles": "CCCCCCCCCCCCSC", "activation": "inconclusive: -2.36%"},
      {"smiles": "OCCC(F)(F)C(F)(F)C(F)(F)C(F)(F)C(F)(F)C(F)(F)F", "activation": "inactive: -10.2%"},
      {"smiles": "Nc1c(Cl)cc(Cl)cc1[N+](=O)[O-]", "Potency": "inconclusive: 17.2 µM [rising, full curve, poor fit]"},
      {"smiles": "CC(=O)c1ccc[nH]1", "activation": "inactive: -13.7%"},
      {"smiles": "CC1=C(C(=O)O)N2C(=O)[C@@H](NC(=O)[C@H](N)c3ccc(O)cc3)[C@H]2SC1", "activation": "inconclusive: 37.7%"},
      {"smiles": "O=S(=O)(O)c1ccc(O)c2ncccc12", "Potency": "inconclusive: 1.91 µM"},
      {"smiles": "CC1CCC(C(C)(C)S)C(=O)C1", "note": "(stereo not given)", "activation": "inconclusive: 5.71%"},
      {"smiles": "CCCCCCCCCCCCCBr", "activation": "inactive: 4.43%"},
      {"smiles": "Cc1ccc(N(CCO)CCO)cc1", "activation": "inconclusive: -7.72%"},
      {"smiles": "NC/C=C/C(=O)O", "activation": "inactive: 15.5%"},
      {"smiles": "C=CCCCCCCCCO", "activation": "inactive: -2.13%"},
      {"smiles": "CCCNCCC", "activation": "inactive: 0.903% [at 94.8 µM]"},
      {"smiles": "CC(=O)N(CC(O)CO)c1c(I)c(C(=O)NCCO)c(I)c(C(=O)NCC(O)CO)c1I", "note": "(stereo not given)", "activation": "inconclusive: 19.7%"},
      {"smiles": "O=C1NC(=O)[C@@H]2CC=CC[C@H]12", "activation": "inconclusive: 12.8%"},
      {"smiles": "Cc1c(N=C=O)cccc1N=C=O", "activation": "inactive: 5.89% [at 94.8 µM]"},
      {"smiles": "CC1(C)[C@@H]2CC[C@@]1(C)[C@H](O)C2", "activation": "inactive: -7.52%"}
    ]}
  ]
}
